# Laboratory results as given in the supplement of paper PMC3334620.
# Whole data set: some 33,000 sequences, median “E-score (-0.5 to 0.5)” near -0.013, cut for the highest 2% near 0.3. The list shows a part of the results.
# Target: T1, Msn1 (UniProt P22148)
# T1 sequence: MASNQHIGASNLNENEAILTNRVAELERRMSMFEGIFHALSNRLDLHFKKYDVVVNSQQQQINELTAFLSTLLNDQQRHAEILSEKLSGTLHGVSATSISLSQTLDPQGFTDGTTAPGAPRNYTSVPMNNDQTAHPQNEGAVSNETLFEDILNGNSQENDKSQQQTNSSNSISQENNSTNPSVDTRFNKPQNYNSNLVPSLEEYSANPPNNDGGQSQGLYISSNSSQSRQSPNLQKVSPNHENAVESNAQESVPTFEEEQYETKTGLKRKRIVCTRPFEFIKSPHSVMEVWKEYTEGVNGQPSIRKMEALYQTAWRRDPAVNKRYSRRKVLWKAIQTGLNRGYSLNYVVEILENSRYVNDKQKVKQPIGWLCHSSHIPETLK
# Assay: PBM E-score (8-mer binding enrichment) (E-score (-0.5 to 0.5)); higher = stronger / more preferred TF binding; most listed sequences are background and not binding sites
# Settings: protein concentration: 200 nM; construct: GST-full length
# Outline: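 Universal all-10-mer Agilent arrays, fresh or stripped once, were converted to double-stranded form by primer extension. GST-tagged yeast transcription factors from PURExpress in vitro transcription/translation, full-length or DNA-binding domain only, were applied at about 100-200 nM and detected with fluorescent anti-GST. After masliner normalisation, the Universal PBM Analysis Suite scored each ungapped eight-base word together with its reverse complement by E-score.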
row,Sequence,PBM E-score
1,ACGATTGG,-0.00479
2,ATGCCTTC,-0.294
3,AGGGAGCG,-0.234
4,AGCGGTTA,-0.0487
5,ACACCTAC,-0.04
6,ACCGACCA,-0.0177
7,ATCAAGGA,-0.057
8,AAAGATCA,0.0609
9,ATGTAAAA,0.188
10,CCTTTCCC,-0.124
11,CCGTTGAC,-0.12
12,ACCGTCTC,-0.061
13,CTTTCCTA,-0.195
14,AGGTTGGA,-0.0227
15,ATCGTGTG,0.139
16,CTGTTGAA,0.118
17,GTACAAAA,0.416
18,TACCCCGA,-0.016
19,ACTCAAGG,-0.202
20,CAACGTTC,-0.0539
21,ATTTCACC,-0.0512
22,CAGTTGTA,0.069

row,Sequence,PBM E-score
1,CGTCAATC,0.0734
2,ATATCCCA,0.115
3,AGAAGTAG,-0.0797
4,ATTTTGGC,0.177
5,ACAGGCCA,-0.0223
6,ACTTTAAC,-0.0591
7,ACTGGTTA,-0.0483
8,AGTGTAAG,0.113
9,CCCTAAGG,-0.079
10,ACAAGGGC,-0.077
11,AGCGGAGA,-0.00013
12,GATTGCGC,0.102
13,TCAGTCAA,-0.00996
14,CGCGGAAC,0.0407
15,ACAGCCAA,-0.0759
16,GGCGACAA,0.069
17,CAGGGCGC,-0.23
18,AATCTCCT,-0.206
19,AGGCGACG,-0.143
20,GGGGACCC,-0.352
21,CCCGTGAC,-0.194
22,ACTATATC,0.0372

row,Sequence,PBM E-score
1,GTCGGATA,0.0474
2,ATGGAGAG,-0.0424
3,CGAGGCCA,-0.166
4,CATAGCTA,-0.193
5,CCGGAGAC,0.111
6,ACAGACCA,0.125
7,ATAGAACC,-0.14
8,CAGAGGAC,0.0901
9,ACTAGTAT,0.0508
10,ACGGATCT,0.0114
11,GTGGGCGA,0.0429
12,GTATTCGA,-0.237
13,CCATGAAA,0.187
14,CTAGCCAC,-0.227
15,GCGTTGTA,0.0495
16,ATCACCAG,0.0155
17,GGTAGTCA,-0.119
18,ACTGAAAA,0.0891
19,CGCGGATA,0.0372
20,CTTAGCTA,-0.284
21,ACGCCTCG,-0.0821
22,CTTCTCTC,-0.0293

row,Sequence,PBM E-score
1,TAAAGAAA,0.159
2,AGCTACGC,-0.186
3,ACGAACGC,-0.00437
4,ACGTTAGG,-0.23
5,GGAACTCA,-0.0378
6,AGTAGCAC,-0.212
7,TCATGGAA,-0.00281
8,ACATGGGT,0.192
9,TCATAGGA,0.124
10,AAGGATAG,-0.00248
11,CTGACCGC,-0.0999
12,ACAAGGGT,0.123
13,GCAATCGA,0.00159
14,ACGTCATG,0.0841
15,ATTACGCG,-0.059
16,ACCAGCGA,-0.107
17,CGGGTAAC,0.0115
18,ATCCTCAA,-0.125
19,CAGCCGCA,-0.258
20,ACCTTTGA,-0.12
